Assay results: the supplement of paper PMC12217912
Some of the results follow. The full chains were built here from the parent and the listed change. Values near 0.05 are background.

B1: TEV protease; numbered along this chain (parent)
chain: MGESLFKGPRDYNPISSSICHLTNESDGHTTSLYGIGFGPFIITNKHLFRRNNGTLVVQSLHGVFKVKDTTTLQQHLVDGRDMIIIRMPKDFPPFPQKLKFREPQREERICLVTTNFQTKSMSSMVSDTSCTFPSGDGIFWKHWIQTKDGQCGSPLVSTRDGFIVGIHSASNFTNTNNYFTSVPKNFMELLTNQEAQQWVSGWRLNADSVLWGGHKVFMVKPEEPFQPVKEATQL

Variants of: B1
Assay: raw area under fraction-flipped curve 0-4 h after induction (AUC4h, not background-subtracted), DNA-recorder readout of cleavage of the substrate (dimensionless); higher = more cleavage of the substrate by the protease variant
Conditions: temperature: 34 °C; time window: 0-4 h after rhamnose induction
Method: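 In vivo DNA recorder in E. coli TOP10(DE3) ΔrhaA at 34 °C. Each TEVp single-site mutant (parent TEVp 0) is paired with a single-site variant of the 7-mer TEVs (canonical ENLYFQ|S). The substrate sits between flexible linkers in a Bxb1-sfGFP-TEVs-SsrA fusion, so cleavage stabilises Bxb1 and speeds flipping of a recombination array, read by NGS. The value is the raw area under the fraction-flipped curve over 0-4 h after rhamnose induction (AUC4h), with ≥20 reads per time point. It is not background-subtracted; inactive controls average about 0.047.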
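Note: Bxb1 expression induced with 0.2% (w/v) L-rhamnose at OD600 near 0.5, cultures sampled hourly, flipped fraction per protease–substrate barcode pair counted by paired-end Illumina sequencing.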

Row | Variant | area with substrate ECLYFQS | area with substrate EELYFQS | area with substrate EGLYFQS | area with substrate EILYFQS | area with substrate EKLYFQS | area with substrate ELLYFQS | area with substrate EPLYFQS | area with substrate EQLYFQS | area with substrate ERLYFQS | area with substrate ESLYFQS | area with substrate EVLYFQS | area with substrate EDLYFQS | area with substrate EMLYFQS | area with substrate EYLYFQS | area with substrate EHLYFQS | area with substrate ETLYFQS | area with substrate EFLYFQS | area with substrate EWLYFQS
1 | E108M | 0.0903 | 0.101 | 0.075 | 0.047 | 0.0859 | 0.0816 | 0.0806 | 0.0596 | 0.0794 | 0.0868 | 0.0836 |  |  |  |  |  |  | 
2 | K68V | 0.087 | 0.11 | 0.0884 | 0.0968 | 0.105 |  | 0.121 | 0.119 | 0.0954 | 0.115 | 0.0896 | 0.13 | 0.114 | 0.104 |  |  |  | 
3 | K68C | 0.107 | 0.126 |  | 0.133 | 0.134 | 0.0865 | 0.136 | 0.119 | 0.077 | 0.103 | 0.139 | 0.149 |  | 0.122 | 0.144 | 0.0977 |  | 
4 | L77E | 0.0458 | 0.0832 | 0.0763 | 0.037 | 0.0592 | 0.0637 | 0.0596 |  | 0.0687 | 0.0605 | 0.0673 |  |  |  | 0.059 | 0.0684 | 0.0545 | 0.0529
5 | L77G | 0.0682 | 0.0814 |  |  | 0.0771 | 0.0768 | 0.0871 | 0.0761 | 0.064 | 0.0832 |  |  |  |  |  |  |  | 
6 | D82R | 0.0407 | 0.0646 |  |  |  |  |  |  |  |  | 0.0526 | 0.0376 |  |  |  | 0.0497 |  | 
7 | Q105Y | 0.0983 | 0.117 |  | 0.102 |  | 0.106 | 0.0941 |  |  |  | 0.0933 | 0.14 | 0.101 |  | 0.0934 |  | 0.0728 | 0.0907
8 | K100F | 0.103 | 0.12 | 0.0901 | 0.0689 |  |  |  | 0.106 |  |  | 0.105 | 0.128 | 0.0973 |  |  | 0.109 |  | 0.106
9 | K100I | 0.0715 | 0.127 | 0.0785 |  |  | 0.0848 |  |  | 0.127 | 0.0972 | 0.108 |  | 0.0993 | 0.0999 | 0.132 |  | 0.115 | 
10 | K100H | 0.113 | 0.11 |  | 0.0988 | 0.102 |  |  | 0.122 | 0.109 | 0.0972 | 0.0572 |  | 0.112 | 0.0992 | 0.107 |  | 0.0857 | 0.101
11 | T70G | 0.0873 |  | 0.0541 | 0.0748 | 0.0859 | 0.0636 | 0.0908 |  | 0.076 | 0.0801 | 0.0632 | 0.0817 |  |  |  |  |  | 0.0671
12 | T70Q | 0.0834 | 0.0904 |  |  | 0.0642 |  | 0.0871 | 0.104 | 0.0792 | 0.0809 |  |  | 0.093 | 0.0864 | 0.0839 |  |  | 
13 | V58F | 0.0968 |  |  | 0.0872 |  | 0.0826 | 0.102 |  |  |  |  |  |  | 0.067 |  |  |  | 
14 | H62S | 0.117 |  | 0.108 | 0.0913 |  | 0.106 | 0.123 | 0.11 | 0.0933 | 0.108 | 0.105 |  |  | 0.116 |  | 0.0827 |  | 0.0972
15 | H62W | 0.0764 |  | 0.0954 | 0.118 | 0.106 | 0.0887 | 0.0994 | 0.106 | 0.0973 | 0.0938 | 0.108 |  |  |  |  |  |  | 0.0857
16 | P93A | 0.103 |  | 0.103 | 0.0865 |  | 0.105 | 0.103 | 0.133 |  | 0.107 | 0.108 | 0.117 | 0.144 |  | 0.113 |  |  | 
